Laboratory results taken from US8852883B2 (priority 2008, dated 2014).

Test system: B. globigii cells
Assay type: cell-based
Settings: B. globigii cultured in presence of BikKam1

Substance: FITC-Ahx-Leu-DLeu-Lys-DABCYL [BikKam1]
- Fluorescent bacteria (fluorescence microscopy): did not lead to fluorescent bacteria
